# Laboratory results reported in PubChem BioAssay AID434955 (Southern Research Specialized Biocontainment Screening …, 2010).
# The other results are listed elsewhere or left out. These are further read-outs of the screen, such as a control signal, another cell line or another target. No call is given for them. Compounds called inactive in the main read-out are mostly missing here.
# Assay: beta-lactam sensitization of Mtb H37Rv, H37Rv (AID 434955);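 note: growth measured after seven days incubation then overnight dye step; 0% = bacteria only wells and 100% = bacteria with antibiotic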
# Conditions: M. tuberculosis H37Rv growth with meropenem, percent inhibition; measured here: primary screen without meropenem; at 25 µM
row,SMILES,inhibition [%]
1,Cn1c(=O)[nH]c(=O)c2c1nc(Br)n2CCCSc1nc2ccccc2o1,0.84
2,CN1CCC(Oc2ccccc2Sc2ccc(C(F)(F)F)cc2)CC1,51.2
3,CCOC(=O)N1CCN(C(=O)CSCC(=O)Nc2nc(-c3ccc(OC)cc3)cs2)CC1,-11.8
4,CCOc1ccccc1/C=N/n1c(C2CCCCC2)n[nH]c1=S,4.1
5,COc1cc(-c2nnc(SCc3cc(=O)oc4cc(C)ccc34)o2)cc(OC)c1OC,-12.1
6,COc1cc(C)ccc1OCc1cc(C(=O)NCCN2CCOCC2)no1,-5.05
7,c1ccc2c(c1)Cn1nc(Cc3nc4c(s3)CCCC4)nc1-2,17
8,CC(=O)OCC(=O)Nc1ccc(C(C)=O)cc1,28.2
9,COc1cccc(C(=O)NNc2c3ccccc3nc3ccccc23)c1,12.7
10,NC(=S)N/N=C/c1ccc([N+](=O)[O-])cc1,42.6
11,O=C(CCS(=O)(=O)c1ccccc1)N(CCCN1CCOCC1)c1nc2c(F)cccc2s1,49.6
12,Cc1cc(=O)c2ccc3ccccc3c2[nH]1,10.2
13,CCCCn1c(N2CCCC2)nc2c1c(=O)[nH]c(=O)n2C,-8.87
14,Cc1cccc(C)c1NC(=O)CN(C)C(=O)c1ccc(COc2ccccc2)cc1,11.8
15,Cc1nn(C)cc1S(=O)(=O)N1CCN(c2ccccc2)CC1,5.84
16,CCn1c(=O)c2cc(C(=O)N(C)c3ccccc3F)sc2c2ccccc21,2.55
17,COCc1ccc(C(=O)NC2CCCc3c2cnn3-c2ccc(C)c(C)c2)o1 (configuration not stated),2.57
18,O=C(Cc1ccc2c(c1)OCCO2)N1CCN(S(=O)(=O)c2cccc(C(F)(F)F)c2)CC1,7.34
19,O=C(NC1CCCCCCC1)c1ccc(Br)cc1,2.94
20,COc1cc(-c2nn3c(-c4cccc(C)c4)nnc3s2)cc(OC)c1OC,-4.61
21,CCc1nc(SCC(=O)Nc2ccc([N+](=O)[O-])cc2)n[nH]1,-2.26
22,Cc1ccccc1CN1CCC(CNC(=O)Nc2ccc(F)cc2F)CC1,-0.41
23,CCCC1O[C@@H]2CC3C4CCC5=CC(=O)C=C[C@]5(C)C4C(OC(C)=O)C[C@]3(C)[C@]2(C(=O)COC(C)=O)O1 (some centres not stated),10.7

row,SMILES,inhibition [%]
1,O=C(Nc1ccc(S(=O)(=O)N2CCCCC2)cc1)C1CCCN(C(=O)c2ccc(Cl)cc2)C1 (configuration not stated),8.02
2,O=C(CN1C(=O)c2cccc([N+](=O)[O-])c2C1=O)N1CCN(c2ccc(F)cc2)CC1,15.1
3,Cc1ccc(S(=O)(=O)c2nc(-c3ccccc3F)oc2N2CC(C)OC(C)C2)cc1 (configuration not stated),-2.28
4,CCn1c(SCC(=O)Nc2nc(C)c(C)s2)nnc1-c1ccco1,-1.58
5,COc1ccc(CCNC(=O)Cc2ccc3c(c2)OCO3)cc1OC,-0.39
6,COc1ccc(CN2CCc3ccc(NC(=O)c4ccncc4)cc3C2)c(F)c1,3.92
7,Cn1c(=O)c(=O)n(C)c2cc(N3CCCCC3)c(NS(=O)(=O)c3ccc([N+](=O)[O-])cc3)cc21,1.01
8,CCOC(=O)C(Cc1ccccc1)NC(C)=O (configuration not stated),-0.06
9,N#Cc1ccc(-c2nc3cc(Cl)ccc3c(=O)n2O)cc1,77.5
10,CCOC(=O)c1[nH]c(C)c(CCC(=O)O)c1C,-0.75
11,Cc1ccnc(N2CCC(C(=O)Nc3cccc(C(F)(F)F)c3)CC2)n1,91.5
12,Cn1c(/C=C/c2ccc(Br)cc2)c([N+](=O)[O-])c(=O)n(C)c1=O,32.7
13,COc1ccc(C(=O)Nc2nc3ccc(OC)cc3s2)cc1,45.5
14,CC1CCN(c2oc(-c3ccccc3F)nc2C#N)CC1,-2.56
15,O=[N+]([O-])c1cccc(NC(=S)Nc2nc(-c3ccc(Cl)cc3Cl)cs2)c1,46.6
16,Cc1onc(-c2ccccc2)c1C(=O)Nc1ccc(-c2nnc3n2CCCCC3)cc1,15.7
17,Cc1cccc(CC(=O)Nc2c3c(nn2-c2cccc(Cl)c2)CS(=O)C3)c1 (configuration not stated),0.89
18,Cc1cccc(CC(=O)N2CCC(n3nccc3NC(=O)C3CC3)CC2)c1,-1.86
19,O=C(NC1CCCc2ccccc21)C1CCN(S(=O)(=O)c2ccccc2)CC1 (configuration not stated),-0.49
20,CC(C)Cn1c2c(c(O)c(C(=O)Nc3ccc(F)cc3)c1=O)CCCC2,25.4
21,O=C(O)C1CCCCC1C(=O)NC1CCCCC1 (configuration not stated),6.52
22,CN(CCCC(=O)NCc1ccc2c(c1)OCO2)S(=O)(=O)c1ccc([N+](=O)[O-])cc1,-2.25
23,C=CCCC(=O)N1CCC(n2nccc2NC(=O)c2ccccc2C)CC1,-2.71

row,SMILES,inhibition [%]
1,CCOc1ccc(NC(=O)CC2C(=O)N(c3ccccc3)C(=O)N2CCc2cccs2)cc1 (configuration not stated),1.22
2,COc1cc(/C=N/NC(=O)c2ccc3c(c2)OCCO3)cc(Cl)c1O,7.78
3,Oc1ccccc1/C=N/n1c(COc2ccccc2)n[nH]c1=S,6.84
4,Cc1cccc(/C=N\NC(=O)c2csnn2)c1,52.1
5,COc1ccc(C2N(c3ccc(F)cc3)C(=O)C3CCCN32)cc1 (configuration not stated),-7.75
6,CC(=O)c1cccc(S(=O)(=O)N2CCCC(c3nc(-c4ccc(C)o4)no3)C2)c1 (configuration not stated),1.72
7,Cn1cc(CN2CCc3ccccc3C2)c2ccccc21,4
8,Cc1cccc(/C=N/NC(=O)c2cc(C)nc3ccccc23)n1,-12
9,CC(C)=CCCC(C)CN1CCC(n2nccc2NC(=O)C2CCCC2)CC1 (configuration not stated),3.75
10,COc1cccc(C(=O)N(CN2CCCC2=O)c2cc(C)on2)c1,1.12
11,Cc1nn(C)c(C)c1CCC(=O)N1CCCC(N2CCN(c3ccc(F)cc3)CC2)C1 (configuration not stated),1.43
12,O=C1c2cccc3c(N4CCCCC4)ccc(c23)C(=O)N1c1ccccn1,19.5
13,COCCCn1c(=O)/c(=C\c2cccc(OC)c2OC)s/c1=C(/C#N)C(=O)Nc1ccc(C(=O)O)cc1,47.4
14,CCOc1cccc2cc(C(=O)NCc3cccnc3)c(=O)oc12,6.22
15,Cc1nn(-c2ccccc2)c(Cl)c1CN(C(=O)CCl)c1cccc2ccccc12,20.9
16,O=C(c1cccc(Br)c1)N1CCN(C2=NS(=O)(=O)c3ccccc32)CC1,-5.54
17,COCCn1c(SCC(=O)Nc2ccc(F)cc2)nc2c([nH]c3ccccc32)c1=O,3.89
18,COc1ccc(OC)c(C(=O)COC(=O)c2ccccc2O)c1,-1.97
19,CC(C)[C@H](NC(=O)OCc1ccccc1)C(=O)OCC(=O)NC1(C#N)CCCC1,9.03
20,CC(C)(C)c1nnc2sc(SCC(=O)c3cccs3)nn2c1=O,45.4
21,CCOC(=O)c1cnc(SCC(=O)Nc2ccc(NC(=O)CC)c(OC)c2)nc1N,0.82
